These are yes or no findings as the source states them, for the method shown. Binding seen in cells or lysates may run through a third protein. Some binding calls cover weakened binding; strength is not graded here. Sequences can lack the tags named with a protein.
Key:
[1] = molecular target: T1, Vps8ΔN-TAP (C-terminal domain of Vps8, from residue 451, C-terminal TAP tag) (yeast (genomic locus of BY4741/BY4733 strains)) (UniProt P39702); assay: co-IP; small-scale TAP purification: C-terminally TAP-tagged Vps8 or Vps3 (full-length or truncated) captured from yeast lysate (50 mM HEPES/KOH pH 7.4, 300 mM NaCl, 0.15% NP-40, 2 mM MgCl2, 1 mM DTT) on IgG beads, 1.5 h at 4°C; eluted with glycine pH 2.5 or TEV protease; Western blot with anti-Cbp, anti-HA, anti-Vps11; also with overproduced Vps8ΔN and from vps21Δ and vps21Δ ypt52Δ ypt53Δ ypt7Δ strains
T1 sequence: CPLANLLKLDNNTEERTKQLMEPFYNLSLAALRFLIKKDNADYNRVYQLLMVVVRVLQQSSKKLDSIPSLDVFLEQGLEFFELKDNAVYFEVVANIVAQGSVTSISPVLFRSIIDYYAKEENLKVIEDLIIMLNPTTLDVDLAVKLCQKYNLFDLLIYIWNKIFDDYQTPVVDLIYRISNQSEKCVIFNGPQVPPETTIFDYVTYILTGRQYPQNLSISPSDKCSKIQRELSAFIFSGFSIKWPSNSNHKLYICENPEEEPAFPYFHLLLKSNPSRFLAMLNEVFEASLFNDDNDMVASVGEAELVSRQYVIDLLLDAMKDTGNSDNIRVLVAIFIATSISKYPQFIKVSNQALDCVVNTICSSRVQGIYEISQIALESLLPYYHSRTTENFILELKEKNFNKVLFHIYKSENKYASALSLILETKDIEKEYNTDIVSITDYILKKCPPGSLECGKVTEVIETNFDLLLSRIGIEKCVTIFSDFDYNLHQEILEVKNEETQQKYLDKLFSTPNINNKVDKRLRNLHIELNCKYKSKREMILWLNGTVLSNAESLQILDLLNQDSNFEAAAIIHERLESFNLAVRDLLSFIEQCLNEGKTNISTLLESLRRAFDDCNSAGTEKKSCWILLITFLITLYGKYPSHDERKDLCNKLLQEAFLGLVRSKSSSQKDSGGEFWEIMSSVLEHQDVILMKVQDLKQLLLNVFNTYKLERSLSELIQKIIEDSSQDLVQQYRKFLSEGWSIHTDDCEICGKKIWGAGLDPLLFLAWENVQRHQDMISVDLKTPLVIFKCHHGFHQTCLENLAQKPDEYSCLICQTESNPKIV

By UniProt entry, the sequences of proteins in these tests, tags left out.
UniProt P12868: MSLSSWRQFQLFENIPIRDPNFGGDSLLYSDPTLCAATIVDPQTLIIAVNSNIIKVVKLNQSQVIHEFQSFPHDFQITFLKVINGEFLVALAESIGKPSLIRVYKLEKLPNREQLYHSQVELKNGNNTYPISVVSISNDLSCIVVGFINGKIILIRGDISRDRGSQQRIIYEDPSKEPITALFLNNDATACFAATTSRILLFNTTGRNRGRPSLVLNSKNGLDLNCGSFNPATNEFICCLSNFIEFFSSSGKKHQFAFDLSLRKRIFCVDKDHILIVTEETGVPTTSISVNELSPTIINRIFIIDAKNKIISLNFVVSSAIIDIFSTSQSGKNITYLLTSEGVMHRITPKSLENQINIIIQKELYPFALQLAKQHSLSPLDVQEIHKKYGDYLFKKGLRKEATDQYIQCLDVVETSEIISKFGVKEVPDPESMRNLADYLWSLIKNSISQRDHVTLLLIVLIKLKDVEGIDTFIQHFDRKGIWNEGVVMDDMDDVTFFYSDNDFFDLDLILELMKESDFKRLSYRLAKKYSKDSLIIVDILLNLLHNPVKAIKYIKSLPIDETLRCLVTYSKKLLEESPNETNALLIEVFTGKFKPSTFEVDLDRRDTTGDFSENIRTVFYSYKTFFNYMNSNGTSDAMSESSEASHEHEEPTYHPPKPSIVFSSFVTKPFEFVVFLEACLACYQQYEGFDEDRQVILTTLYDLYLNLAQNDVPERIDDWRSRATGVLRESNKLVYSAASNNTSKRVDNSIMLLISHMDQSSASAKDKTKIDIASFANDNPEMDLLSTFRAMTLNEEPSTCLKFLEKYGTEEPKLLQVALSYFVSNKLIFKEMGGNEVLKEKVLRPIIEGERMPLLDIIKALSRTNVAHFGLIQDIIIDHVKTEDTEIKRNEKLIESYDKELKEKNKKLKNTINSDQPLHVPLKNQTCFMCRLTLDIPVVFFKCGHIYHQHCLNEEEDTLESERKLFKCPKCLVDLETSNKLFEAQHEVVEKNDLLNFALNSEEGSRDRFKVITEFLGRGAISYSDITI

[2] = molecular target: T2, Vps8-TAP (full-length Vps8, C-terminal TAP tag) (yeast (genomic locus of BY4741/BY4733 strains)) (UniProt P39702); assay: as above
T2 sequence: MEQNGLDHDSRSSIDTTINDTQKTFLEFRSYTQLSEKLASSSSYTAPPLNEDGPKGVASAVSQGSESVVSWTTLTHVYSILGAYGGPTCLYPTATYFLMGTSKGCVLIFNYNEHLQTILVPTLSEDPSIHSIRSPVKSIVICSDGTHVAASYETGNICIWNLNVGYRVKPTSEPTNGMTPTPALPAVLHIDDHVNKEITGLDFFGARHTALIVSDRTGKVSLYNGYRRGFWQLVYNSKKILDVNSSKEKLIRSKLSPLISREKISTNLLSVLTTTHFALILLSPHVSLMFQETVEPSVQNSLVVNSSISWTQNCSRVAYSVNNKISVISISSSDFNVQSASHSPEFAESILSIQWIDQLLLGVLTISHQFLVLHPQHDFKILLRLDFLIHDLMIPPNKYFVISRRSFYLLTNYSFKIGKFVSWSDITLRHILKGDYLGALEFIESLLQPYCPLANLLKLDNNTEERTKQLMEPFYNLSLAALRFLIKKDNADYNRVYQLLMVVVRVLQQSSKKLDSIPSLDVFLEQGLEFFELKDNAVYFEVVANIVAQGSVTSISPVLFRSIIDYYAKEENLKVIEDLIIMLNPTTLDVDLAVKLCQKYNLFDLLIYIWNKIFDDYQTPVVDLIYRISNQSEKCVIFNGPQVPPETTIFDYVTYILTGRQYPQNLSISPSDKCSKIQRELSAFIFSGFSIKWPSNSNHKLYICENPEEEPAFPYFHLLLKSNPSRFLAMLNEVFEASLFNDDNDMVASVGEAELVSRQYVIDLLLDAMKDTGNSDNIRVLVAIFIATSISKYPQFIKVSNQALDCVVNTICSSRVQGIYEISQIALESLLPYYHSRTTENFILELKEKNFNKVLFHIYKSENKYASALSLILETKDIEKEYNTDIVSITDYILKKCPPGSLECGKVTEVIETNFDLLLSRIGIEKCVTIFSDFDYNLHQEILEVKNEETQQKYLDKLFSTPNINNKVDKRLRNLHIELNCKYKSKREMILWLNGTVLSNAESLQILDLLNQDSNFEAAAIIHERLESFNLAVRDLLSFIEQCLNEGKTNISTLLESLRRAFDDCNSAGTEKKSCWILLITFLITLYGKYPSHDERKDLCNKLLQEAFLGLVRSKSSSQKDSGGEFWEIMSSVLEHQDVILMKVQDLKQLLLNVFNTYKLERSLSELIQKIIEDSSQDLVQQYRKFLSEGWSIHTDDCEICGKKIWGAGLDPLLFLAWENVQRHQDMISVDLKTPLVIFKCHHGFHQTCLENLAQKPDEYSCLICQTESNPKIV

Vps11 (from UniProt P12868 1-1029) was tested, and the binding [1] was “binds” and the binding [2] was “binds”.

Source: publication PMC3688683, “The N-Terminal Domains of Vps3 and Vps8 Are Critical for Localization and Function of the CORVET Tethering Complex on Endosomes” (PLoS ONE, 2013)
